According to the supplement of paper PMC4967469:
A lower IC50 marks a more sensitive line; where the fit passes the top or lowest dose, that dose stands as a limit. The AUC spans the tested range (256-fold, ending at the top dose) of the same fit; it is 1 without any effect and falls as sensitivity rises. The top dose, if marked as inferred, was derived from the fitted curves, not read from the paper. An entry number marks a drug with two screens in the source, which often give different values.

compound: NC(=O)[C@@H](CCC(F)(F)F)N(Cc1ccc(-c2ncon2)cc1F)S(=O)(=O)c1ccc(Cl)cc1 [BMS-708163]; test: Viability of human cancer cell lines after 72 h of drug (GDSC screen); settings: screen: GDSC drug entry 205; top dose inferred
Protocol: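 Human cancer cell lines in 384-well plates, medium with 10% serum, drug for 72 h over a 256-fold dose range (nine 2-fold or five 4-fold steps up to the top dose). Adherent lines were fixed and stained with the nucleic acid dye Syto60, suspension lines read with resazurin; signal relative to control wells, capped at 0 and 100%. One two-parameter sigmoid per drug and line, fitted in a mixed model over all curves with the slope shared within a line.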

| Cell Line | AUC | IC50 |
| --- | --- | --- |
| J82 (bladder, adherent, top dose 10.24 µM) | 0.988 | > 10.2 µM |
| GAMG (glioma, adherent, top dose 10.24 µM) | 0.985 | > 10.2 µM |
| SNB75 (glioma, adherent, top dose 10.24 µM) | 0.976 | > 10.2 µM |
| CCRF-CEM (lymphoblastic leukaemia, suspension, top dose 10.24 µM) | 0.911 | > 10.2 µM |
| HDQ-P1 (breast, adherent, top dose 10.24 µM) | 0.985 | > 10.2 µM |
| LB996-RCC (kidney, adherent, top dose 10.24 µM) | 0.983 | > 10.2 µM |
| NCI-SNU-16 (stomach, suspension, top dose 10.24 µM) | 0.991 | > 10.2 µM |
| Becker (glioma, adherent, top dose 10.24 µM) | 0.982 | > 10.2 µM |
| LU-99A (large cell lung carcinoma, adherent, top dose 10.24 µM) | 0.987 | > 10.2 µM |
| OSC-19 (head and neck, adherent, top dose 10.24 µM) | 0.986 | > 10.2 µM |
| A4-Fuk (B-cell lymphoma, suspension, top dose 10.24 µM) | 0.986 | > 10.2 µM |
| COLO-829 (melanoma, adherent, top dose 10.24 µM) | 0.973 | > 10.2 µM |
| SKN (uterus, adherent, top dose 10.24 µM) | 0.971 | > 10.2 µM |
| DU-145 (prostate, adherent, top dose 10.24 µM) | 0.984 | > 10.2 µM |
| ASH-3 (thyroid, adherent, top dose 10.24 µM) | 0.987 | > 10.2 µM |
| L-540 (Hodgkin lymphoma, suspension, top dose 10.24 µM) | 0.99 | > 10.2 µM |
| VA-ES-BJ (soft tissue, adherent, top dose 10.24 µM) | 0.986 | > 10.2 µM |
| TE-441-T (rhabdomyosarcoma, adherent, top dose 10.24 µM) | 0.985 | > 10.2 µM |
| NCI-H747 (large intestine, adherent, top dose 2.56 µM) | 0.973 | > 2.56 µM |
| NB10 (neuroblastoma, adherent, top dose 10.24 µM) | 0.978 | > 10.2 µM |
| PCI-30 (head and neck, adherent, top dose 10.24 µM) | 0.985 | > 10.2 µM |
| HCC1599 (breast, suspension, top dose 2.56 µM) | 0.977 | > 2.56 µM |
| MMAC-SF (melanoma, adherent, top dose 10.24 µM) | 0.987 | > 10.2 µM |
| BT-20 (breast, adherent, top dose 10.24 µM) | 0.95 | > 10.2 µM |

| Cell Line | AUC | IC50 |
| --- | --- | --- |
| SCH (stomach, adherent, top dose 10.24 µM) | 0.987 | > 10.2 µM |
| MOG-G-CCM (glioma, adherent, top dose 10.24 µM) | 0.982 | > 10.2 µM |
| HT55 (large intestine, adherent, top dose 10.24 µM) | 0.99 | > 10.2 µM |
| SW780 (bladder, adherent, top dose 10.24 µM) | 0.986 | > 10.2 µM |
| KP-N-YS (neuroblastoma, adherent, top dose 10.24 µM) | 0.965 | > 10.2 µM |
| NCI-H322M (lung adenocarcinoma, suspension, top dose 10.24 µM) | 0.986 | > 10.2 µM |
| CAL-120 (breast, adherent, top dose 10.24 µM) | 0.94 | > 10.2 µM |
| SK-LMS-1 (soft tissue, adherent, top dose 10.24 µM) | 0.987 | > 10.2 µM |
| MZ7-mel (melanoma, adherent, top dose 10.24 µM) | 0.986 | > 10.2 µM |
| GCT (soft tissue, adherent, top dose 10.24 µM) | 0.989 | > 10.2 µM |
| H2804 (mesothelioma, adherent, top dose 10.24 µM) | 0.972 | > 10.2 µM |
| RPMI-6666 (Hodgkin lymphoma, suspension, top dose 10.24 µM) | 0.943 | > 10.2 µM |
| 22RV1 (prostate, adherent, top dose 10.24 µM) | 0.979 | > 10.2 µM |
| DOV13 (ovary, adherent, top dose 10.24 µM) | 0.983 | > 10.2 µM |
| Hs-445 (Hodgkin lymphoma, suspension, top dose 10.24 µM) | 0.989 | > 10.2 µM |
| NCI-H1793 (lung adenocarcinoma, adherent, top dose 10.24 µM) | 0.982 | > 10.2 µM |
| SNU-1040 (large intestine, adherent, top dose 10.24 µM) | 0.971 | > 10.2 µM |
| PC-3 [JPC-3] (lung adenocarcinoma, adherent, top dose 10.24 µM) | 0.977 | > 10.2 µM |
| KS-1 (glioma, adherent, top dose 10.24 µM) | 0.955 | > 10.2 µM |
| IGR-1 (melanoma, adherent, top dose 10.24 µM) | 0.99 | > 10.2 µM |
| KCL-22 (chronic myeloid leukaemia, suspension, top dose 10.24 µM) | 0.991 | > 10.2 µM |
| HCC1569 (breast, adherent, top dose 10.24 µM) | 0.977 | > 10.2 µM |
| IPC-298 (melanoma, adherent, top dose 10.24 µM) | 0.987 | > 10.2 µM |
| ES4 (Ewing sarcoma, adherent, top dose 10.24 µM) | 0.932 | > 10.2 µM |

| Cell Line | AUC | IC50 |
| --- | --- | --- |
| NCI-H2087 (lung adenocarcinoma, semi-adherent, top dose 2.56 µM) | 0.983 | > 2.56 µM |
| CAL-62 (thyroid, adherent, top dose 10.24 µM) | 0.988 | > 10.2 µM |
| KOSC-2 (head and neck, adherent, top dose 10.24 µM) | 0.961 | > 10.2 µM |
| NCI-H1437 (lung adenocarcinoma, adherent, top dose 10.24 µM) | 0.986 | > 10.2 µM |
| LOU-NH91 (lung squamous cell carcinoma, adherent, top dose 10.24 µM) | 0.984 | > 10.2 µM |
| A431 (skin, adherent, top dose 10.24 µM) | 0.987 | > 10.2 µM |
| PE/CA-PJ15 (head and neck, adherent, top dose 10.24 µM) | 0.986 | > 10.2 µM |
| SW756 (cervix, adherent, top dose 10.24 µM) | 0.984 | > 10.2 µM |
| SH-4 (melanoma, adherent, top dose 10.24 µM) | 0.962 | > 10.2 µM |
| Farage (B-cell lymphoma, suspension, top dose 10.24 µM) | 0.992 | > 10.2 µM |
| JHH-6 (liver, adherent, top dose 10.24 µM) | 0.986 | > 10.2 µM |
| NCI-H1651 (lung adenocarcinoma, adherent, top dose 10.24 µM) | 0.982 | > 10.2 µM |
| PA-TU-8988T (pancreas, adherent, top dose 10.24 µM) | 0.987 | > 10.2 µM |
| COLO-792 (melanoma, adherent, top dose 10.24 µM) | 0.985 | > 10.2 µM |
| HN (head and neck, adherent, top dose 10.24 µM) | 0.988 | > 10.2 µM |
| GRANTA-519 (B-cell lymphoma, suspension, top dose 10.24 µM) | 0.989 | > 10.2 µM |
| LNZTA3WT4 (glioma, adherent, top dose 10.24 µM) | 0.989 | > 10.2 µM |
| HCT-116 (large intestine, adherent, top dose 10.24 µM) | 0.983 | > 10.2 µM |
| HuP-T3 (pancreas, adherent, top dose 10.24 µM) | 0.971 | > 10.2 µM |
| RCC10RGB (kidney, adherent, top dose 10.24 µM) | 0.957 | > 10.2 µM |
| TE-6 (oesophagus, adherent, top dose 10.24 µM) | 0.974 | > 10.2 µM |
| H2595 (mesothelioma, adherent, top dose 10.24 µM) | 0.98 | > 10.2 µM |
| TE-11 (oesophagus, adherent, top dose 10.24 µM) | 0.99 | > 10.2 µM |
| JVM-2 (lymphoid neoplasm, suspension, top dose 10.24 µM) | 0.982 | > 10.2 µM |

same assay, conditions: top dose 5 µM; screen: GDSC drug entry 1072; top dose inferred

| Cell Line | AUC | IC50 |
| --- | --- | --- |
| RCC-AB (kidney, adherent) | 0.952 | > 5 µM |
| KATOIII (stomach, semi-adherent) | 0.969 | > 5 µM |
| MOLM-16 (acute myeloid leukaemia, suspension) | 0.979 | > 5 µM |
| JHOS-4 (ovary, adherent) | 0.905 | > 5 µM |
| G-MEL (melanoma, adherent) | 0.986 | > 5 µM |
| Mewo (melanoma, adherent) | 0.96 | > 5 µM |
| CADO-ES1 (Ewing sarcoma, suspension) | 0.986 | > 5 µM |
| NCI-H1105 (small cell lung carcinoma, suspension) | 0.991 | > 5 µM |
| SK-GT-2 (stomach, adherent) | 0.986 | > 5 µM |
